Test results published in paper PMC4336329 (PLoS ONE, 2015).
Hit rate of the full screen: of about 310,000 compounds, about 14,000 (4.5%) showed an effect of 50% or more. Effects have a minus sign here. Some of the results follow.

biological target: human ether-à-go-go-related gene (hERG) potassium channel (human, UniProt Q12809); assay: primary screen, population patch clamp on CHO cells stably expressing hERG
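Further: peak tail current of the secondary pulse compared with the same well before compound.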

Sequence of human ether-à-go-go-related gene (hERG) potassium channel (Q12809 whole entry, looked up): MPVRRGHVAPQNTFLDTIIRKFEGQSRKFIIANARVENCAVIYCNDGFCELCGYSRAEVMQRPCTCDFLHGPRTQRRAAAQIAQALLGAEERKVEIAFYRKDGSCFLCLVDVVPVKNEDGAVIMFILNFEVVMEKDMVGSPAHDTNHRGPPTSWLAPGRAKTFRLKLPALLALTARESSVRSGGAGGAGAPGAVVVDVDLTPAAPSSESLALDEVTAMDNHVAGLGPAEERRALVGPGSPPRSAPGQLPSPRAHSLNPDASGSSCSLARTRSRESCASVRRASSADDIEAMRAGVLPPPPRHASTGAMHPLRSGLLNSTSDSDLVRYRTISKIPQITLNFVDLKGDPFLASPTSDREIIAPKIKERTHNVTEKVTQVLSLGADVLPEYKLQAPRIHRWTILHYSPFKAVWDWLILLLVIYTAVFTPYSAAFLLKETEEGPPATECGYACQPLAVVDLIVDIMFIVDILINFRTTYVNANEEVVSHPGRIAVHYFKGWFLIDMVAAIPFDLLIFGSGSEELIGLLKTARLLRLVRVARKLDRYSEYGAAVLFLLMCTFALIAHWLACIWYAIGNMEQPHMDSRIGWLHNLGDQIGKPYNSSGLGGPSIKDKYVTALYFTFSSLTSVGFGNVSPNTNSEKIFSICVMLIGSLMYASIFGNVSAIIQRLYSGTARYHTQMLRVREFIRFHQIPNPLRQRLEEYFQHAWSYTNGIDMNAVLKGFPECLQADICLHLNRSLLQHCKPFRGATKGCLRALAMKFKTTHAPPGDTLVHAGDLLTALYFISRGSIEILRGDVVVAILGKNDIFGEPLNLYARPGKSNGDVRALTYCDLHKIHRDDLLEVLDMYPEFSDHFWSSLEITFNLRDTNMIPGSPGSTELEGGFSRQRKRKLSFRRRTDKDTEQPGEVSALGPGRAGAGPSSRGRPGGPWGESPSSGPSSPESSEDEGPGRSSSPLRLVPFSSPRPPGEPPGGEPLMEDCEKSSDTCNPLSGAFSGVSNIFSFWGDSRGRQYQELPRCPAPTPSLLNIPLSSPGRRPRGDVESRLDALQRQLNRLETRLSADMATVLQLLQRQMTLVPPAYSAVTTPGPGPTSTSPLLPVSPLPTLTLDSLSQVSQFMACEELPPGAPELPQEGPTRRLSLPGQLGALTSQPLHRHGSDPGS

Row | Compound | hERG current change (%, negative = inhibition) at 10uM
1 | CCOC(=O)Cc1csc(NC(=O)c2ccc(S(=O)(=O)N3CCOCC3)cc2)n1 | -2.52%
2 | C/C(CC(=O)Nc1cc(Cl)ccc1Cl)=N\NC(=O)c1ccccc1Br | 12.8%
3 | COc1ccc(N2C(=O)c3ccc(C(=O)Nc4ccccc4O)cc3C2=O)cc1 | 23.6%
4 | Cc1ccc(S(=O)(=O)Nc2nsc(N)n2)cc1 | 1.18%
5 | COc1ccc(/C=N\NS(=O)(=O)c2ccc(Br)cc2)cc1COc1ccccc1[N+](=O)[O-] | 11.1%
6 | COC(=O)c1ccc(NC(=O)C23CCC(C)(C(=O)O2)C3(C)C)cc1 (stereo not drawn) | 14.9%
7 | CN(C)c1ccc(Cl)cc1N.Cl | 19.5%
8 | Cc1ccc(NC(=O)COC(=O)CCCC2=NS(=O)(=O)c3ccccc3N2)cc1C | 14.6%
9 | Cc1cc(-n2cnc(-c3cn[nH]c3C)n2)no1 | 13.3%
10 | Cc1ccc(C)c(OCCC(=O)NNC(=O)c2ccccc2)c1 | -0.158%
11 | CC1CC(CC(=O)NC(=S)Nc2ccccc2Cl)C(=O)O1 (stereo not drawn) | 8.4%
12 | Cn1c2c(c(=O)n(C)c1=O)C(CC(=O)Nc1ccccc1F)C(=O)N2 (stereo not drawn) | 19.3%
13 | Cc1nnc(NC(=O)c2ccc(S(=O)(=O)N(C)c3ccccc3)cc2)s1 | 13.1%
14 | Cc1ccc(S(=O)(=O)NNC(=O)Cc2cccn2C)cc1 | 11.2%
15 | O=C1COC(c2ccccc2)C2CCCCN12 (stereo not drawn) | 13.4%
16 | O=c1c2cnn(-c3ccccc3)c2nc(-c2cccs2)n1-c1ccc(Br)cc1 | -11.5%
17 | CC(=O)c1sc(NC(=O)c2ccc(COc3ccccc3Cl)o2)nc1C | 33.5%
18 | CC(=O)Nc1cc(C(=O)O)ccc1S(=O)(=O)c1ccc(C)cc1 | 6.18%
19 | CCCC(C(=O)OCC)P(=O)(c1ccccc1)c1ccccc1 (stereo not drawn) | -6.54%
20 | COC(=O)Cc1[nH]c(Cl)nc1C(N)=O | 4.96%
21 | CCC1(CC)NC(=O)N(CC(=O)OC(C)C(=O)Nc2ccccc2OC)C1=O (stereo not drawn) | 32.3%
22 | CC(=O)Nc1sc2c(c1C(N)=O)CCCC2 | 22.8%
23 | O=C(/C=C/NNC(=O)c1ccccc1)c1ccc(Br)cc1 | 6.88%

Row | Compound | hERG current change (%, negative = inhibition) at 10uM
24 | CC(=O)N=c1sc2c3ccccc3ccc2n1C | -3.72%
25 | CN(C)CCNC(=O)/C(=N\O)c1ccccn1 | 16.1%
26 | CC(=O)c1ccc(NC(=O)[C@@H]2CCCN2C2=NS(=O)(=O)c3ccccc32)cc1 | 2.69%
27 | O=C(Nc1ccc2ccccc2c1)N1C[C@H]2C[C@@H](C1)c1cccc(=O)n1C2 | 1.15%
28 | C=CCN1CC(=O)N2C(C)c3[nH]c4ccccc4c3C[C@H]2C1=O (stereo partly drawn) | 9.97%
29 | CCOc1ccc(NC(=O)c2cc(S(=O)(=O)N3CCOCC3)cn2C)cc1 | 6.18%
30 | O=C(O)C1CCCCN1S(=O)(=O)c1ccc(Cl)s1 (stereo not drawn) | 2.15%
31 | CCN(CC)S(=O)(=O)c1cccc(C(=O)NC(C(=O)NC2=NCCS2)C(C)C)c1 (stereo not drawn) | -13.4%
32 | O=S(=O)(c1ccc2c(c1)OCCO2)N1CCNCC1 | 6.08%
33 | Cc1c(NC(=S)NC(=O)c2ccccc2)c(=O)n(-c2ccccc2)n1C | -21.3%
34 | CC(C)CN1CC(C(=O)O)CC1=O (stereo not drawn) | 32.5%
35 | CCOc1cc(N2CCOCC2)c(OCC)cc1NC(=O)COC(=O)CCOc1cc(C)ccc1C | -5%
36 | Oc1ccc(C2=NNC(=NCc3ccc4c(c3)OCO4)SC2)c(O)c1 | 3.29%
37 | O=C1NN(c2ccccc2)C(=O)/C1=C/c1ccc(-c2ccc(C(=O)O)cc2)o1 | 18.2%
38 | O=C(COc1ccc(Cl)cc1)Nc1ccc(Cc2ccncc2)cc1 | -47.7%
39 | O=C(NC(=S)Nc1ccccc1)c1cccs1 | 23.9%
40 | OCCN1c2ccccc2CCc2ccccc21 | 12%
41 | O=C(NCCc1ccc(Cl)cc1)Nc1ccc(F)cc1 | 32%
42 | COCCn1nnnc1C(c1cc2cc(OC)ccc2[nH]c1=O)N1CCC(Cc2ccccc2)CC1 (stereo not drawn) | -10.9%
43 | Cc1cc(=O)[nH]c(Nc2ccccc2C)n1 | -0.453%
44 | O=C(c1csc2c1CCCC2)n1cccn1 | -14.9%
45 | COc1cccc(CNC(=O)COC(=O)CCc2cc(OC)c(OC)c(OC)c2)c1 | 10.8%
